Residue numbers refer to the chain shown, from its start. Some of the results follow.
B1: chr9:7206979:7206980:+_ENSMUSG00000032002_ENSMUST00000034499|mus_hu|FALSE|FALSE (ssRNA)
RNA: GGGAGUUCUACAGUCCGACGAUCUUAAGGCCUUUGUCACAAAUCUGAAUCUUUAUUGUUCUGAAAUAAAUGUUAUAAACAUAACUCAAAACAAAAACUUCAAUAUUCAGUCUAAGAAGAGGUGUGGCUCAAUGCCCAUCACAUCAACAGAGGAUUGAGCAUCA
B2: chr7:75932113:75932114:+_ENSG00000106211_ENST00000248553|hu_hu|hu_hu_hu_mus_False|28_78 (ssRNA)
RNA: GGGAGUUCUACAGUCCGACGAUCCUGCGACCACUCAUCGGGCAACCGGGGCACCCCGAAGGCCUGGUCGAAGAGGCGGCUGUGUGCAGGGUACCAGUCCCGGAAUGCCCAGCUGGGCGGGCUCCGCAGCAGCGAGAAGGGCACCAACAGAGGAUUGAGCAUCA
B3: chr1:244855233:244855234:+_ENSG00000121644_ENST00000302550|hu_mus|hu_hu_hu_mus_True|48_48 (ssRNA)
RNA: GGGAGUUCUACAGUCCGACGAUCCAUCAGAUGGUAGGCGUUGCCCUUAUACUCUUUCCCCAGUUCUUCUACAAUUUUCUCUAUAUCAUCUUCUAGGAAGUCCGUACUUCCUAGAACAACAGCUUCUUUAAAUUUAAAUGUUUCCAACAGAGGAUUGAGCAUCA
B4: chr14:78183846:78183847:+_ENSG00000119705_ENST00000557342|hu_hu|hu_hu_hu_mus_False|58_88 (ssRNA)
RNA: GGGAGUUCUACAGUCCGACGAUCUCUCAGAAAUCUUUCUUCAUCAGCAUCAUCAGAUCCGUGCAAAGCCUUUGCUCUUCUAGUGUGAACGUGGAUCUAUGGGAGGGAAAGCACUGUCAGAAAAGGUAAUUUUUUUUUUAAAGACAACAGAGGAUUGAGCAUCA
B5: chr17:46298169:46298170:+_ENSMUSG00000023952_ENSMUST00000024748|mus_mus|motif|central (ssRNA)
RNA: GGGAGUUCUACAGUCCGACGAUCUUUACCUCCUCUGUUCCUUCCGUUCUUCUUCUUCCCCUUUGGGCCCCCGCAACUGCUGCGGCCGCCGGCCCCCCGAGCUUUGAGGUUUCCACCCAUGGCCGGGCCUCCUCCGGGCCGGCACAACAGAGGAUUGAGCAUCA
B6: chr17:55757426:55757427:+_ENSG00000153944_ENST00000284073|hu_mus|motif|central (ssRNA)
RNA: GGGAGUUCUACAGUCCGACGAUCAUAGAGUCUAUGCCCACCUCCCGCUCCGCGUAUCACAACUUCGAUUCAGUGUGUGCGGAAGUCCCAGAUGAAAAGUCUUACAGUCUCAGAACUGGUACCAAAAAUGGAGAGUAACAUCACCAACAGAGGAUUGAGCAUCA
B7: chr9:26842284:26842285:-_ENSG00000120159_ENST00000333916|hu_mus|FALSE|FALSE (ssRNA)
RNA: GGGAGUUCUACAGUCCGACGAUCAUACAAAAUUAUAUGACAUGGCUUCAUUCAAACACACAUAAUAUUCAAGUCAGAAAACUACACUGGCUUUUUUAUAUCACCAGCUUUCAUGAGAGCCUUAAUUGCUCUUGCCCUCAUUUCCAACAGAGGAUUGAGCAUCA
B8: chr5:28742860:28742861:+_ENSMUSG00000048271_ENSMUST00000114884|mus_hu|FALSE|FALSE (ssRNA)
RNA: GGGAGUUCUACAGUCCGACGAUCCCCCUCAAAAUUUGUCUGGAAAAAUGAUGAGAUUUACUCUUUAGAAGAAUAUCAGUAUAAGGAUUUAACAAACGUGGCCAGACCAGUGGUAAUGCAAGGUUAUCUAAAGUAGCUAAGUGACAACAGAGGAUUGAGCAUCA
B9: chr11:46405157:46405158:+_ENSG00000110492_ENST00000395566|hu_hu|hu_hu_hu_mus_False|48_108 (ssRNA)
RNA: GGGAGUUCUACAGUCCGACGAUCCCCUUAGGGGUGGGGGCACUUGGUGUGGGCGUGAGAGGACAGGCGUGAUUGACAGAGCUGACAAGCAGACAGAAGGCACUGGUGGGUUAUAUCUUGGGCCUGUGGGAGAGGAGGGCUCCGCAACAGAGGAUUGAGCAUCA
B10: 21628483_21628693_1543_CDS_ENSG00000004700_ENST00000444129|human|control|control (ssRNA)
RNA: GGGAGUUCUACAGUCCGACGAUCAAUUCCCAUACCAAAUGCAACAGUUGCCACUACUACCUGAAUUUCAUUGGCUGACCAUUUUCUAUGAACUGUGGUCUUAUCUUCUGGCUCCAAAUUGGCAUGGUAAGCACCUGCAUGAAUCAACAGAGGAUUGAGCAUCA
B11: chr15:52350861:52350862:+_ENSG00000069956_ENST00000261845|hu_hu|motif|central (ssRNA)
RNA: GGGAGUUCUACAGUCCGACGAUCUGGAAUUACGCUGAGAAGCUCCUGACGAUCUUCCUCAUGUACAACAGGAAUAGAUUCGGAAAUCAGCUGCAUCUGUUCAAGUUCAUGUGCACCUGCAAAAAGGGUUUUACCAGUCAGCAUCAACAGAGGAUUGAGCAUCA
B12: chr22:32879901:32879902:+_ENSG00000100225_ENST00000397426|hu_mus|hu_hu_hu_mus_False|1_8 (ssRNA)
RNA: GGGAGUUCUACAGUCCGACGAUCCUCUUCCAUACUCAUGGCAUCCUGAAUUGACUCAGCUUCAACAUUUUGACUAGGCCCUUCCAUACUGUCAUCAGUCCAGGCAUCAAAUGGGGUGGCCUGUCCUUGGAAUGAAUCACUUGGCAACAGAGGAUUGAGCAUCA
B13: chr10:70097624:70097625:+_ENSG00000096746_ENST00000354695|hu_hu|motif|central (ssRNA)
RNA: GGGAGUUCUACAGUCCGACGAUCGUCCAUCGUCAAUGUUAUCCCAUUUGGCACGAUUUCCAACCCUUGAAAGAACUGAACGGUUUCCUCUUUGCUGCAACCAAAUGGUAGUCCACGAAGUCGUACUGUCCCAUCACUAGCGUCCAACAGAGGAUUGAGCAUCA
B14: chr2:32640116:32640117:+_ENSG00000115760_ENST00000421745|hu_hu|motif|central (ssRNA)
RNA: GGGAGUUCUACAGUCCGACGAUCUUCUGAUAUACUUUCACCCUGAGUUCUGCUUAAACCAUCCAGUGACCUGUGAGAAUUACGGCGGAUGGGUGAGGUAGCAGGAGAUUUAUAUGUUAAUAAACCUCCAGCUAAUAAACAUGGCAACAGAGGAUUGAGCAUCA
B15: chr8:26933331:26933332:-_ENSMUSG00000031575_ENSMUST00000166078|mus_hu|FALSE|FALSE (ssRNA)
RNA: GGGAGUUCUACAGUCCGACGAUCCUGGUGGAACUUGGUUCCCUUUUUGCUCCGCCAAGAAUAGCUAAAUUUAUCAUAACCUAAAGGAGCUUGAAGGUUUCCUAGGGGCUGGGACCAACCCAGUCUGGCAGCGGUAUCUGGUGGCAACAGAGGAUUGAGCAUCA
B16: chr3:152055631:152055632:+_ENSMUSG00000025437_ENSMUST00000117492|mus_mus|motif|central (ssRNA)
RNA: GGGAGUUCUACAGUCCGACGAUCCCAGUUAUGAUUGGUUAGAGUAAUAAGAACAUUAUCGAAGCCAAAGUAUUUACAGUGCGGCAAAGGGUUUGCUGGAUCUGCCUGUAGAACAAAGGUCAGAGAACCUAGUUACCAACUGUCCAACAGAGGAUUGAGCAUCA
B17: chr2:69661947:69661948:+_ENSMUSG00000042155_ENSMUST00000053087|mus_hu|FALSE|FALSE (ssRNA)
RNA: GGGAGUUCUACAGUCCGACGAUCGGCUCGGUGACAAUGGAAAAUUAUGCCUGAAGGACACUGAAGAGUAAUAUCAGUAAAUAAUCCAUCCAAGUAAAAUGUUCUGAAUGCAUCCAGAAAAUCCACUGGAUGUGUUGAAUCCUUCAACAGAGGAUUGAGCAUCA
B18: 76046523_76046643_2167_CDS_ENSG00000078687_ENST00000588847|human|control|control (ssRNA)
RNA: GGGAGUUCUACAGUCCGACGAUCACUGUUCAUGAUGGACCCAUCGUUCUUCCCCCCUGAGUUUGAAGCCUGAGUAGCUGCACAACCCCAGGCCUCUGUCCCAUUGUCAUUUUUCCUUUCAGACCUAGGGGAUUCUUCAAAUUCCAACAGAGGAUUGAGCAUCA
B19: chr7:65705475:65705476:+_ENSG00000169902_ENST00000304842|hu_hu|hu_hu_hu_mus_True|18_18 (ssRNA)
RNA: GGGAGUUCUACAGUCCGACGAUCUCUAUUCGGUGAUGGCACUCCAUGGCAUGCUGGCCCAGGUAAAACACGGUCACAGAACUAAUCACCAGACACGCCAAGAGUAAGUUCUGCUUCAGCUUUCCAACCAUCUUGAUGUGGUUACAACAGAGGAUUGAGCAUCA
B20: chr7:141450121:141450122:+_ENSG00000106028_ENST00000265304|hu_mus|hu_hu_hu_mus_True|68_108 (ssRNA)
RNA: GGGAGUUCUACAGUCCGACGAUCUCAUCCUUUCUACGCCUUUUCUUUUGUCUGGUCACUCAGAAAUAUAAUAUUAUCAGCUAUGAUUGUUGUUGCUUGCCGCCUCACAUUGUUUUUAUCCAUGUACUCGCCAUAGUCCACUUUCAACAGAGGAUUGAGCAUCA
B21: chrX:16871948:16871949:-_ENSG00000102054_ENST00000404022|hu_hu|FALSE|FALSE (ssRNA)
RNA: GGGAGUUCUACAGUCCGACGAUCAGUAAAGAUGGCUUUAGCAUCCACAAUUUUGCCUUCUUUUGGUCCUGCGUUUAUAUCCCACAGACAAACAGUAUGGUCAUCAGAUGCACUUAGGAGAUGUCCACUCAAAUUUGAAUUCCACAACAGAGGAUUGAGCAUCA
B22: chr1:244855233:244855234:+_ENSG00000121644_ENST00000302550|hu_mus|hu_hu_hu_mus_True|38_48 (ssRNA)
RNA: B3 RNA with A105G

Molecular target: T1, UNK ZnF1-3 (human, UniProt Q9C0B0 31-174)
T1 sequence: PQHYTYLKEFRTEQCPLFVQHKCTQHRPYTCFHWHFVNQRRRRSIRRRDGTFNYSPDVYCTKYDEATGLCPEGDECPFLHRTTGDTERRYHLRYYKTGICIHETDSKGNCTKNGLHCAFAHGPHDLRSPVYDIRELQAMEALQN
Assay: nsRBNS (natural sequence RNA bind-n-seq); RBNS binding buffer (assumed for nsRBNS): 25 mM Tris pH 7.5, 150 mM KCl, 3 mM MgCl2, 0.01% Triton X-100, 500 ug/ml BSA, 20 U/ml SUPERase-In, 4 C; UNK is unkempt and MSI1 is Musashi-1; names of the RNAs are library labels; protein concentration not given here; high values mean tight binding

| Binder | binding signal |
| --- | --- |
| B1 | 0.771 enrichment R |
| B2 | 0.364 enrichment R |
| B3 | 1.33 enrichment R |
| B4 | 1.76 enrichment R |
| B5 | 0.655 enrichment R |
| B6 | 1.54 enrichment R |
| B7 | 0.855 enrichment R |
| B8 | 1.33 enrichment R |
| B9 | 2.78 enrichment R |
| B10 | 0.813 enrichment R |
| B11 | 0.846 enrichment R |
| B12 | 1.01 enrichment R |
| B13 | 0.629 enrichment R |
| B14 | 0.773 enrichment R |
| B15 | 0.976 enrichment R |
| B16 | 0.813 enrichment R |
| B17 | 1.04 enrichment R |
| B18 | 0.627 enrichment R |
| B19 | 0.559 enrichment R |
| B20 | 0.463 enrichment R |
| B21 | 1.41 enrichment R |
| B22 | 1.11 enrichment R |

Reference: article PMC12136788
